Consider 58 molecules from article PMC4336329 (PLoS ONE, 2015).

Screen size: about 310,000 compounds; about 14,000 (4.5%) showed an effect of 50% or more. Effects have a minus sign here. This is one part of the list.
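Note: peak tail current of the secondary pulse compared with the same well before compound.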

The target of this experiment is human ether-à-go-go-related gene (hERG) potassium channel (human, UniProt Q12809). As to the kind of experiment: primary screen, population patch clamp on CHO cells stably expressing hERG.
human ether-à-go-go-related gene (hERG) potassium channel, sequence (Q12809 whole entry, looked up): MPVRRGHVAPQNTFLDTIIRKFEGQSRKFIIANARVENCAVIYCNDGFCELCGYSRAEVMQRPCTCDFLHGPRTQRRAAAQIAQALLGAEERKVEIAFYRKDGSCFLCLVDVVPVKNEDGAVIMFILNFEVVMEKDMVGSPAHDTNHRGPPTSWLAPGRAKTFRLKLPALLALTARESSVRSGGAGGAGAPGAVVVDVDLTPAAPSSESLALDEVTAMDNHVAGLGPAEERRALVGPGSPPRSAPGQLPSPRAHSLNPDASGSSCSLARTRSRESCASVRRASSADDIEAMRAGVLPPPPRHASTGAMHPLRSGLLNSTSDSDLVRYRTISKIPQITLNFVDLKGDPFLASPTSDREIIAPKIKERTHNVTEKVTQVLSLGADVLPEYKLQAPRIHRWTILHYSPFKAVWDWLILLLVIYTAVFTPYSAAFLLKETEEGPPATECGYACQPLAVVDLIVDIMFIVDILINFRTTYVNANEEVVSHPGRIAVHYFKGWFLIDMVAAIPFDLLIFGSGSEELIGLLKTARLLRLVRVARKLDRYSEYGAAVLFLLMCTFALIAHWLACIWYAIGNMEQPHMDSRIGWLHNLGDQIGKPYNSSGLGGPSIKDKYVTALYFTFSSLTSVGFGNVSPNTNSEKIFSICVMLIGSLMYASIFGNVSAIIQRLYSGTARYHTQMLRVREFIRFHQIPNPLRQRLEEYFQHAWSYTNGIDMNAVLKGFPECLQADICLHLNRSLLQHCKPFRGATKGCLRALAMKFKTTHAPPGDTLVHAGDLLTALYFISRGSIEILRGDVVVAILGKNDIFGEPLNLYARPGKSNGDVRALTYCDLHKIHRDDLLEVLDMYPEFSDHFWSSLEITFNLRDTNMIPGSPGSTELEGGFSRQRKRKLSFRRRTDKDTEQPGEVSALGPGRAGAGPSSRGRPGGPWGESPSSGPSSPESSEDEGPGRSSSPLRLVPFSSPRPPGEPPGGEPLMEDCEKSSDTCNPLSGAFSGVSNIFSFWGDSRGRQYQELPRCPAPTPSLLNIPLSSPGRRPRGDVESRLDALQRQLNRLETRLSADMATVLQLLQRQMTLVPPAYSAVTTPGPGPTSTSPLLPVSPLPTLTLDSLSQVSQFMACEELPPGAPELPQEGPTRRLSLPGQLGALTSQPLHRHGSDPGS
For the molecule `O=C(CCN1C(=O)c2ccccc2S1(=O)=O)Nc1ccccc1`, the “hERG current change (%, negative = inhibition) at 10uM” value is recorded as -1.82%.
Next, `Cc1ccc(C)c(S(=O)(=O)N2CCN(CC(=O)Nc3sccc3C#N)CC2)c1`: -57.7%.
Next, `Cc1nnc2ccc(-c3cccc(NC(=O)c4ccc(Cl)nc4)c3)nn12`: -56.7%; `Cc1cc(Cl)c2ccc3ccccc3c2n1`: 11.6%.
Next, `C=CCNC(=O)NC(=O)Cn1c(=O)c2c(ncn2CC)n(Cc2ccccc2)c1=O`: -1.06%; `CC(C)(C)n1nnnc1C(c1cccs1)N(Cc1ccccc1)Cc1cccnc1` (stereo not shown): -15.6%.
For the molecule `O=C(CN1C(=O)COc2ccccc21)NC1CCCC1`, the “hERG current change (%, negative = inhibition) at 10uM” value was determined as 17.2%.
Take `Cc1ccc(CC(=O)Nc2cccc(C)n2)cc1`: the “hERG current change (%, negative = inhibition) at 10uM” value worked out at 1.71%.
Next, `Cn1c(CNc2cccc(C(F)(F)F)c2)n[nH]c1=S`: 15.7%.
Next, `C/C=C/C=C(/NC(=O)c1ccccc1)C(=O)Nc1ccccc1`: 10.5%.
Next, `COc1ccc(OCc2nc(N)nc(Nc3cccc(C)c3C)n2)cc1`: 18.6%; `O=C(NCCN1CCN(Cc2ccc([N+](=O)[O-])cc2)CC1)C(=O)Nc1ccccc1`: -64.3%; `CCOC(=O)CSC1=C(C#N)C(=O)NC(c2ccc(OC)c(OC)c2)S1` (stereo not shown): 20.9%.
Take `CCCCn1c2nc3ccccc3nc2c2c(=O)n(-c3ccccc3)cnc21`: the “hERG current change (%, negative = inhibition) at 10uM” value was -9.59%.
Next, `COC(=O)c1n[nH]n(-c2ccc(F)c(Cl)c2)c1=O`: 9.84%.
Consider `Cc1onc(-c2ccccc2)c1C(=O)Nc1cccc(C#N)c1`, for which the “hERG current change (%, negative = inhibition) at 10uM” value is recorded as -10.8%.
Next, `COc1ccc(CCNC(=O)COc2coc(CN3c4ccccc4CC3C)cc2=O)cc1OC` (stereo not shown): 3.46%; `COc1ccc(NC(=O)CCCC(=O)c2ccccc2)c(OC)c1`: 3.93%.
For `Cc1ccc(N2CC(C(=O)OCC(=O)c3ccc(F)cc3)CC2=O)cc1` (stereo not shown), the “hERG current change (%, negative = inhibition) at 10uM” value came out at 10.1%.
Next, `O=C(Nc1ccc(N2CCCCC2)cc1)C(Cl)c1ccccc1` (stereo not shown): 7.17%.
Next, `CCn1cc(Br)c(C(=O)NN)n1`: 19.3%; `Cc1ccc(S(=O)(=O)N2C(=O)c3cccc4cccc2c34)cc1`: 19.4%; `CC(Oc1cccc2cccnc12)C(=O)N/N=C/c1ccccc1` (stereo not shown): 3.83%.
Next, `Cn1c(SCC(=O)c2cc(Cl)c(Cl)s2)nnc1-c1ccco1`: -60.5%.
Take `CC(=O)N1CC=CC1(CC(C)C)C(=O)NCCc1c[nH]c2ccccc12` (stereo not shown): the “hERG current change (%, negative = inhibition) at 10uM” value is reported as 4.11%.
Next, `C[C@]12CC[C@H](OS(=O)(=O)[O-])CC1=CC[C@@H]1[C@@H]2CC[C@]2(C)C(=O)CC[C@@H]12.O.[Na+]`: 36.3%; `CN(CCCC1CCCC1)C(=O)CCc1nnc(-c2ccccc2)o1`: -22.7%; `CN(C(=O)c1ccncc1)C1CCS(=O)(=O)C1` (stereo not shown): -2.9%.
Next, `COc1ccc(/C=N/n2cc(-c3ccc(OC)cc3)nc2N)cc1`: -3.96%.
As for `O=C(c1ccc(NC(=S)NCc2ccc(Cl)cc2)cc1)N1CCCCC1`, the “hERG current change (%, negative = inhibition) at 10uM” value was found to be 1.04%.
Next, `Cn1nc(Oc2ncc(C(F)(F)F)cc2Cl)cc1C(F)(F)F`: 15.4%; `Cc1nc([N+](=O)[O-])c(SCC(N)=O)n1Cc1ccccc1`: 27.8%.
Next, `COc1ccc(-c2c(C)oc3cc(O)cc(O)c3c2=O)cc1OC`: -7.42%; `COC(=O)c1nnn(-c2nonc2N)c1CSc1nnc(N)s1`: -46.8%.
Next, `Cc1ccc(NS(=O)(=O)c2ccc(-c3cnc(C4CC4)o3)cc2)c(C)c1`: 2.08%; `CC(C)CNC(=S)NNC(=O)c1csc2c1CCCC2`: 7.34%; `COc1ccccc1NS(=O)(=O)c1cccc(C(=O)N/N=C2\CC(=O)CC(C)(C)C2)c1`: -3.44%.
On to `Cc1ccc(S(=O)(=O)N2CC3CC(C2)c2cccc(=O)n2C3)cc1` (stereo not shown), for which the “hERG current change (%, negative = inhibition) at 10uM” value is -22%.
Next, `CN(C)S(=O)(=O)c1cccc(COC(=O)c2ccc(Cl)cc2O)c1`: -7.36%; `C=C(C)CC1Nc2ccccc2NC1CC(=C)C` (stereo not shown): -1.86%; `Cc1nc2ccc(NC(=O)c3ccc(Cl)nc3)cc2s1`: -13.3%.
For the molecule `CCCn1nc(CC(=O)O)c2ccccc2c1=O`, the “hERG current change (%, negative = inhibition) at 10uM” value worked out at 6.35%.
Next, `Cc1ccccc1CSc1nnc(-c2cccs2)n1Cc1ccco1`: -41.7%; `O=C1N(c2ccccc2C(F)(F)F)O[C@]1(c1ccccc1)C1CCCCC1`: -5.05%.
Next, `COc1ccc(CCC(=O)NNC(=O)Nc2cc(Cl)ccc2C)cc1`: 8.33%.
Next, `Cc1ccc2ccccc2[n+]1CCCS(=O)(=O)[O-]`: 11.7%.
For the molecule `O=C(NC1CCCCC1)N(Cc1cc2cc3c(cc2[nH]c1=O)OCCO3)CC1CCCO1` (stereo not shown), the “hERG current change (%, negative = inhibition) at 10uM” value is on record as -6.1%.
In the case of `Cc1cc([N+](=O)[O-])ccc1-c1ccc(/C=N/NC(=O)Cc2ccccc2)o1`, the “hERG current change (%, negative = inhibition) at 10uM” value amounted to 10.3%.
Next, `CN1CCN(C(CNC(=O)C(=O)NC2CCCCC2)c2ccc(F)cc2)CC1` (stereo not shown): -23%.
Regarding `COc1ccc(/C=C2\SC(=S)N(C(C(=O)O)c3ccccc3)C2=O)c(OC)c1` (stereo not shown), the “hERG current change (%, negative = inhibition) at 10uM” value is 15.8%.
For the molecule `C/C(=C\c1ccccc1F)C1Nc2cccc3cccc(c23)N1`, the “hERG current change (%, negative = inhibition) at 10uM” value was found to be 13.1%.
Next, `CCCCc1nc2ccc(S(=O)(=O)O)cc2[nH]1`: -0.324%; `Cc1nnc(SCC2=C(C(=O)O)N3C(=O)C(NC(=O)c4cccc(F)c4F)C3SC2)s1` (stereo not shown): 13.2%; `Cc1cccc2cc(CNC3CCCC3)c(Cl)nc12`: 0.412%.
Next, `CN1C2CCC1CC(=NO)C2`: 11%.
Next, `COc1cc(/C=N/NC(=O)c2ccoc2C)ccc1OCCN1CCCCC1`: -31.6%; `N#CCc1nn(Cc2ccc(F)cc2)c(=O)c2ccccc12`: -24.6%.
On to `CCc1cccc2c(C(=O)COC(=O)c3ccc([N+](=O)[O-])s3)c[nH]c12`, for which the “hERG current change (%, negative = inhibition) at 10uM” value is listed as -3.62%.
